Data taken from the supplement of paper PMC9446081.
In all, about 39,000 compounds went through this assay and about 220 (0.56%) showed activity. This is one part of the list.

System: Escherichia coli K-12 BW25113
Assay: relative growth (OD600 normalised to plate interquartile mean) (fraction); higher = less growth inhibition, active = 0.2 or less
Conditions: 50 µM; LB; incubation time: overnight (16-24 h)
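Also: static incubation at 37 °C against the wild-type strain, values averaged over two biological replicates.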

SMILES	relative growth
C[C@H](CO)N1C[C@H](C)[C@@H](CN(C)S(C)(=O)=O)Oc2ccc(NC(=O)Cc3cn(C)c4ccccc34)cc2CC1=O	inactive: 1
C[C@H]1CN([C@@H](C)CO)C(=O)Cc2cc(NS(=O)(=O)c3ccccc3)ccc2O[C@@H]1CN(C)S(=O)(=O)c1ccc(F)cc1	inactive: 0.984
C[C@@H]1CN([C@@H](C)CO)C(=O)c2cc(NS(=O)(=O)c3ccc(Cl)cc3)ccc2O[C@@H](C)CCCCO[C@@H]1CN(C)C(=O)c1ccccc1	inactive: 1
C[C@H](CO)N1C[C@H](C)[C@@H](CN(C)S(=O)(=O)c2ccc3c(c2)OCCCO3)OCc2cnnn2CCCC1=O	inactive: 1
C[C@H](CO)N1C[C@H](C)[C@H](CN(C)C(=O)NC2CCCCC2)Oc2ccc(NS(=O)(=O)c3cn(C)cn3)cc2CC1=O	inactive: 0.995
C[C@H](CO)N1C[C@H](C)[C@@H](CN(C)Cc2ccc(C(F)(F)F)cc2)Oc2c(NC(=O)NC3CCCCC3)cccc2C1=O	inactive: 0.912
CCc1cnc2c(c1OC)c(=O)n(CCN1CCOCC1)c(=O)n2C	inactive: 0.976
OCc1ccccc1-n1cncn1	inactive: 0.998
N[C@@H]1[C@@H](O)[C@H](O)[C@@H](CO)O[C@H]1O	inactive: 1.12
Cc1ccc(C(=O)Nc2ccc(Nc3ccccc3)cc2)c(C)c1	inactive: 0.997
CC(C)NC(=O)N(C)C[C@H]1Oc2cc(-c3ccccc3F)ccc2S(=O)(=O)N([C@H](C)CO)C[C@H]1C	inactive: 1.01
COCCNC(=O)C[C@@H]1CC[C@@H]2[C@@H](COc3ccc(NC(=O)Nc4cccc(F)c4)cc3C(=O)N2C)O1	inactive: 1.01
Cn1cnc(S(=O)(=O)N[C@H]2C=C[C@H](CC(=O)N3CCN(c4ccccc4)CC3)O[C@H]2CO)c1	inactive: 1.01
COCC(=O)N(C)C[C@@H]1Oc2cc(C#CCN(C)C)ccc2S(=O)(=O)N([C@@H](C)CO)C[C@H]1C	inactive: 1.01
C[C@@H]1CN([C@H](C)CO)C(=O)Cc2cc(NS(=O)(=O)c3cn(C)cn3)ccc2O[C@H]1CN(C)CC1CC1	inactive: 0.979
C[C@H]1CN([C@@H](C)CO)S(=O)(=O)c2ccc(C#Cc3ccncc3)cc2O[C@@H]1CN(C)C(=O)C1CCOCC1	inactive: 1.01
C[C@@H]1CN([C@@H](C)CO)C(=O)c2cc(NC(=O)Nc3cccc4ccccc34)ccc2O[C@@H](C)CCCCO[C@@H]1CN(C)C	inactive: 1.01
O=C(O)c1ccccc1O	inactive: 0.999
COc1ccc(S(=O)(=O)N(C)C[C@H]2Oc3c(NS(=O)(=O)c4cn(C)cn4)cccc3C(=O)N([C@@H](C)CO)C[C@H]2C)cc1	inactive: 1
C[C@@H]1CN([C@@H](C)CO)C(=O)c2cc(NC(=O)Cc3ccccc3)ccc2O[C@H]1CN(C)Cc1ccc(C(F)(F)F)cc1	inactive: 0.997
C[C@H]1CN([C@@H](C)CO)S(=O)(=O)c2ccc(C#CCN(C)C)cc2O[C@@H]1CN(C)C	inactive: 0.979

SMILES	relative growth
O=c1oc2cc(O)ccc2s1	inactive: 0.938
C[C@H](CO)N1C[C@H](C)[C@@H](CN(C)C(=O)Nc2ccc(C(F)(F)F)cc2)Oc2c(NC(=O)c3nc4ccccc4s3)cccc2C1=O	inactive: 0.988
C[C@H]1CN([C@@H](C)CO)C(=O)Cc2cc(NC(=O)CCN3CCOCC3)ccc2O[C@H]1CN(C)Cc1ccccc1	inactive: 1.02
C[C@@H]1CCCCO[C@H](CN(C)C(=O)Nc2ccc(F)cc2)[C@H](C)CN([C@@H](C)CO)C(=O)c2cc(NC(=O)c3ccncc3)ccc2O1	inactive: 0.987
Cc1noc(C)c1NC(=O)Nc1ccc2c(c1)CC(=O)N([C@H](C)CO)C[C@H](C)[C@@H](CN(C)S(=O)(=O)c1c(C)noc1C)O2	inactive: 0.998
CN1C(=O)c2cc(NC(=O)c3cccs3)ccc2OC[C@@H]2O[C@@H](CC(=O)NCCN3CCCCC3)CC[C@@H]21	inactive: 1.01
C[C@@H]1CN([C@H](C)CO)S(=O)(=O)c2ccc(C#Cc3ccc(F)cc3)cc2O[C@@H]1CN(C)C(=O)CN(C)C	inactive: 0.954
COc1ccc(NC(=O)N(C)C[C@@H]2OCCCC[C@@H](C)Oc3ccc(NC(=O)NC(C)C)cc3C(=O)N([C@@H](C)CO)C[C@H]2C)cc1	inactive: 1.01
CCOC(=O)c1cnn2c(N)c(C#N)cnc12	inactive: 1
C[C@H](CO)N1C[C@H](C)[C@@H](CN(C)C(=O)Nc2ccc(C(F)(F)F)cc2)Oc2ccc(NC(=O)CCCCCC(=O)Nc3ccccc3N)cc2C1=O	inactive: 1.01
NC(=O)[C@H]1[C@@H]2C(=O)O[C@@H](c3ccccc3)[C@@H](c3ccccc3)N2[C@@H](c2ccc(OCCO)cc2)[C@]12C(=O)Nc1ccc(C#CC3(O)CCCCCC3)cc12	inactive: 1.07
Cc1ccc(S(=O)(=O)Nc2ccc3c(c2)CC(=O)N([C@H](C)CO)C[C@@H](C)[C@@H](CN(C)C(=O)NC(C)C)O3)cc1	inactive: 1.01
C[C@@H]1CCCCO[C@H](CN(C)S(=O)(=O)c2cccs2)[C@@H](C)CN([C@@H](C)CO)C(=O)c2cc(NC(=O)C3CCCCC3)ccc2O1	inactive: 0.995
NCC[C@H]1CC[C@H](NC(=O)NC2CCCCC2)[C@H](CO)O1	inactive: 0.986
COc1ccc(-c2oc3cc(O[C@H]4O[C@H](CO)[C@@H](O)[C@H](O)[C@H]4O)c(OC)c(O)c3c(=O)c2OC)cc1O	inactive: 1.01
C[C@@H]1CN([C@H](C)CO)C(=O)c2cc(NC(=O)CCN3CCOCC3)ccc2O[C@H]1CN(C)S(C)(=O)=O	inactive: 0.993
CCNC(=O)C[C@@H]1CC[C@H](NC(=O)C2CCOCC2)[C@H](CO)O1	inactive: 1.01
C[C@@H]1CCCCO[C@H](CN(C)CC2CC2)[C@H](C)CN([C@@H](C)CO)C(=O)c2cc(NS(C)(=O)=O)ccc2O1	inactive: 1
C[C@H]1CN([C@@H](C)CO)C(=O)Cc2cc(NS(=O)(=O)c3cn(C)cn3)ccc2O[C@@H]1CN(C)C(=O)Nc1ccc(F)cc1	inactive: 0.982
COc1ccc2nc(Cl)sc2c1	inactive: 0.975
COc1ccc(S(=O)(=O)N(C)C[C@@H]2OCCCC[C@H](C)Oc3ccc(NC(=O)Nc4cccc5ccccc45)cc3C(=O)N([C@H](C)CO)C[C@@H]2C)cc1	inactive: 1.03

SMILES	relative growth
C[C@H]1CCCCO[C@H](CN(C)Cc2ccc(Cl)c(Cl)c2)[C@@H](C)CN([C@@H](C)CO)C(=O)c2cc(NS(C)(=O)=O)ccc2O1	inactive: 0.992
COC(=O)[C@@H]1N2C(=O)[C@@H](N3CC4=C[C@@H](C5CC5)n5c(=O)n(C)c(=O)n5[C@@H]4[C@@H]3[C@@H](O)Cc3ccccc3)[C@H]2SC1(C)C	inactive: 0.986
COc1ccc2c3c([nH]c2c1)[C@@H](CO)N(C[C@]13CN(Cc2cc(on2)-c2ccccc2)C1)C(=O)Nc1ccc(cc1)F	inactive: 1
C[C@@H]1CN([C@H](C)CO)C(=O)c2cc(NC(=O)NC3CCCCC3)ccc2O[C@@H](C)CCCCO[C@@H]1CN(C)S(=O)(=O)c1ccccc1	inactive: 0.961
C[C@@H]1CN([C@@H](C)CO)C(=O)c2cc(NS(=O)(=O)c3cccs3)ccc2O[C@@H]1CN(C)S(=O)(=O)c1cccs1	inactive: 1.01
C[C@H](CO)N1C[C@H](C)[C@@H](CN(C)Cc2ccc(Oc3ccccc3)cc2)Oc2ccc(NC(=O)Nc3ccccc3)cc2C1=O	inactive: 0.994
C[C@@H]1CN([C@H](C)CO)C(=O)Cc2cc(NC(=O)Nc3ccc4c(c3)OCO4)ccc2O[C@@H]1CN(C)Cc1ccc(C(F)(F)F)cc1	inactive: 1.02
COc1ccc(NC(=O)N(C)C[C@H]2OCCCC[C@@H](C)Oc3ccc(NC(=O)Nc4c(C)noc4C)cc3C(=O)N([C@@H](C)CO)C[C@H]2C)cc1	inactive: 1
c1coc(CNc2ncnc3[nH]cnc23)c1	inactive: 1.12
CC(C)NC(=O)Nc1ccc2c(c1)C(=O)N([C@@H](C)CO)C[C@H](C)[C@@H](CN(C)C(=O)Nc1ccccc1)OCCCC[C@H](C)O2	inactive: 1.01
COCc1cn(C[C@H](Cc2ccccc2)NC(=O)N[C@H](CO)CCc2oc(C(=O)N3CCOCC3)c(C(=O)OC)c2C(=O)OC)nn1	inactive: 0.975
O=C(COc1ccccc1)Nc1nn[nH]n1	inactive: 0.98
CCOc1nc2c(N)ncnc2n1CC	inactive: 0.991
C[C@@H]1CN([C@@H](C)CO)C(=O)c2cc(NS(=O)(=O)c3cccs3)ccc2O[C@@H](C)CCCCO[C@@H]1CN(C)CC1CCCCC1	inactive: 0.969
C[C@@H]1CCCCO[C@H](CN(C)C(=O)Nc2ccc(F)cc2)[C@H](C)CN([C@@H](C)CO)C(=O)c2cc(NC(=O)NC3CCCCC3)ccc2O1	inactive: 0.975
CCOc1ccc2nc(S(N)(=O)=O)sc2c1	inactive: 0.99
C[C@H]1CN([C@@H](C)CO)C(=O)CCCn2nncc2CO[C@H]1CN(C)Cc1cccc2c1OCCCO2	inactive: 0.992
CN1C(=O)c2cc(NC(=O)c3cnccn3)ccc2OC[C@H]2O[C@@H](CC(=O)NCC3CCCCC3)CC[C@H]21	inactive: 0.979
CN1C(=O)c2cc(NC(=O)Cc3cccs3)ccc2OC[C@H]2O[C@@H](CC(=O)NCc3ccc(-c4ccccc4)cc3)CC[C@@H]21	inactive: 0.999
C[C@@H]1CCCCO[C@H](CN(C)Cc2ccccc2)[C@@H](C)CN([C@@H](C)CO)C(=O)c2cc(NC(=O)c3ccncc3)ccc2O1	inactive: 1.01
O=C(C[C@@H]1C=C[C@H](NC(=O)c2cnccn2)[C@H](CO)O1)NCc1ccccc1F	inactive: 1.03
